Test results from patent US20150210998A1.

Target: GST-E6AP ligase (wild-type, bacterially expressed fusion protein) (human) (UniProt Q05086)
Assay: cell-based or functional assay

recombinant free glutathione-S-transferase (GST) (a stretch of the chain, sequence left out)
K½ for decrease in the initial rate of polyubiquitin chain formation: 1 µM
